Data published in publication PMC9911399, “Two distinct binding modes provide the RNA-binding protein RbFox with extraordinary sequence specificity”.
Substitutions are numbered along the chain they refer to; changes in the protein carry UniProt numbers. The list shows a part of the results.

T1: RBFOX1 RRM (Homo sapiens, UniProt Q9NWB1 109-208)
T1 sequence: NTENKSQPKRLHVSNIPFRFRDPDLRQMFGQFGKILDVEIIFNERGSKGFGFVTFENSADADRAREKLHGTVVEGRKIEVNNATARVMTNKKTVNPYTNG

B1: CAUAUUC (DNA:RNA)
RNA: GGGAGACCGGAAUUCAGAUUGUCCCAUAUUCUUAAAUCCCGUCGUAGCCACCA
DNA 1: CAATCTGAATTCCGGTCTCCC
DNA 2: TGGTGGCTACGACGGGATT
B2: CGCGGUG (DNA:RNA)
RNA: B1 RNA with A26G, U27C, A28G, U29G, C31G
DNA 1: CAATCTGAATTCCGGTCTCCC
DNA 2: TGGTGGCTACGACGGGATT
B3: GGCAUCG (DNA:RNA)
RNA: B1 RNA with C25G, A26G, U27C, U30C, C31G
DNA 1: CAATCTGAATTCCGGTCTCCC
DNA 2: TGGTGGCTACGACGGGATT
B4: UCGUCUA (DNA:RNA)
RNA: B1 RNA with C25U, A26C, U27G, A28U, U29C, C31A
DNA 1: CAATCTGAATTCCGGTCTCCC
DNA 2: TGGTGGCTACGACGGGATT
B5: AACGAGC (DNA:RNA)
RNA: B1 RNA with C25A, U27C, A28G, U29A, U30G
DNA 1: CAATCTGAATTCCGGTCTCCC
DNA 2: TGGTGGCTACGACGGGATT
B6: AUGAGAU (DNA:RNA)
RNA: B1 RNA with C25A, A26U, U27G, U29G, U30A, C31U
DNA 1: CAATCTGAATTCCGGTCTCCC
DNA 2: TGGTGGCTACGACGGGATT
B7: GCAUCGG (DNA:RNA)
RNA: GGGAGACCGGAAUUCAGAUUGUCCGCAUCGGUUAAAUCCCGUCGUAGCCACCA
DNA 1: CAATCTGAATTCCGGTCTCCC
DNA 2: TGGTGGCTACGACGGGATT
B8: UCCGCCG (DNA:RNA)
RNA: B7 RNA with G25U, A27C, U28G, G30C
DNA 1: CAATCTGAATTCCGGTCTCCC
DNA 2: TGGTGGCTACGACGGGATT
B9: UUAUCUU (DNA:RNA)
RNA: B7 RNA with G25U, C26U, G30U, G31U
DNA 1: CAATCTGAATTCCGGTCTCCC
DNA 2: TGGTGGCTACGACGGGATT
B10: AUAUAUU (DNA:RNA)
RNA: B7 RNA with G25A, C26U, C29A, G30U, G31U
DNA 1: CAATCTGAATTCCGGTCTCCC
DNA 2: TGGTGGCTACGACGGGATT
B11: CUGCAAC (DNA:RNA)
RNA: B1 RNA with A26U, U27G, A28C, U29A, U30A
DNA 1: CAATCTGAATTCCGGTCTCCC
DNA 2: TGGTGGCTACGACGGGATT
B12: GGUAGGU (DNA:RNA)
RNA: B1 RNA with C25G, A26G, U29G, U30G, C31U
DNA 1: CAATCTGAATTCCGGTCTCCC
DNA 2: TGGTGGCTACGACGGGATT
B13: GCUCCUC (DNA:RNA)
RNA: B1 RNA with C25G, A26C, A28C, U29C
DNA 1: CAATCTGAATTCCGGTCTCCC
DNA 2: TGGTGGCTACGACGGGATT
B14: UUGAGCC (DNA:RNA)
RNA: B1 RNA with C25U, A26U, U27G, U29G, U30C
DNA 1: CAATCTGAATTCCGGTCTCCC
DNA 2: TGGTGGCTACGACGGGATT
B15: GUAAGAG (DNA:RNA)
RNA: B7 RNA with C26U, U28A, C29G, G30A
DNA 1: CAATCTGAATTCCGGTCTCCC
DNA 2: TGGTGGCTACGACGGGATT
B16: ACUUGCA (DNA:RNA)
RNA: B7 RNA with G25A, A27U, C29G, G30C, G31A
DNA 1: CAATCTGAATTCCGGTCTCCC
DNA 2: TGGTGGCTACGACGGGATT
B17: CCUCAUU (DNA:RNA)
RNA: B1 RNA with A26C, A28C, U29A, C31U
DNA 1: CAATCTGAATTCCGGTCTCCC
DNA 2: TGGTGGCTACGACGGGATT
B18: GGUAUAG (DNA:RNA)
RNA: B1 RNA with C25G, A26G, U30A, C31G
DNA 1: CAATCTGAATTCCGGTCTCCC
DNA 2: TGGTGGCTACGACGGGATT
B19: AUCUGCA (DNA:RNA)
RNA: B7 RNA with G25A, C26U, A27C, C29G, G30C, G31A
DNA 1: CAATCTGAATTCCGGTCTCCC
DNA 2: TGGTGGCTACGACGGGATT
B20: CGACUUG (DNA:RNA)
RNA: B1 RNA with A26G, U27A, A28C, C31G
DNA 1: CAATCTGAATTCCGGTCTCCC
DNA 2: TGGTGGCTACGACGGGATT
B21: GGCUGGA (DNA:RNA)
RNA: B7 RNA with C26G, A27C, C29G, G31A
DNA 1: CAATCTGAATTCCGGTCTCCC
DNA 2: TGGTGGCTACGACGGGATT
B22: CUUAACG (DNA:RNA)
RNA: B1 RNA with A26U, U29A, U30C, C31G
DNA 1: CAATCTGAATTCCGGTCTCCC
DNA 2: TGGTGGCTACGACGGGATT
B23: GUUACAU (DNA:RNA)
RNA: B1 RNA with C25G, A26U, U29C, U30A, C31U
DNA 1: CAATCTGAATTCCGGTCTCCC
DNA 2: TGGTGGCTACGACGGGATT
B24: CUUAAUU (DNA:RNA)
RNA: B1 RNA with A26U, U29A, C31U
DNA 1: CAATCTGAATTCCGGTCTCCC
DNA 2: TGGTGGCTACGACGGGATT
B25: GCCAGAC (DNA:RNA)
RNA: B1 RNA with C25G, A26C, U27C, U29G, U30A
DNA 1: CAATCTGAATTCCGGTCTCCC
DNA 2: TGGTGGCTACGACGGGATT
B26: AAUAUCC (DNA:RNA)
RNA: B1 RNA with C25A, U30C
DNA 1: CAATCTGAATTCCGGTCTCCC
DNA 2: TGGTGGCTACGACGGGATT
B27: CUGUUCA (DNA:RNA)
RNA: B1 RNA with A26U, U27G, A28U, U30C, C31A
DNA 1: CAATCTGAATTCCGGTCTCCC
DNA 2: TGGTGGCTACGACGGGATT
B28: GAUUAGU (DNA:RNA)
RNA: B7 RNA with C26A, A27U, C29A, G31U
DNA 1: CAATCTGAATTCCGGTCTCCC
DNA 2: TGGTGGCTACGACGGGATT
B29: CCAACAG (DNA:RNA)
RNA: B7 RNA with G25C, U28A, G30A
DNA 1: CAATCTGAATTCCGGTCTCCC
DNA 2: TGGTGGCTACGACGGGATT
B30: UGACUGA (DNA:RNA)
RNA: B7 RNA with G25U, C26G, U28C, C29U, G31A
DNA 1: CAATCTGAATTCCGGTCTCCC
DNA 2: TGGTGGCTACGACGGGATT
B31: UUGCGAA (DNA:RNA)
RNA: GGGAGACCGGAAUUCAGAUUGUCCUUGCGAAUUAAAUCCCGUCGUAGCCACCA
DNA 1: CAATCTGAATTCCGGTCTCCC
DNA 2: TGGTGGCTACGACGGGATT

The binders below were run against T1, RBFOX1 RRM (assay: EMSA; HiTS-Eq, 1 nM pool, 10 min; buffer printed only for the single-RNA assays: 10 mM Tris pH 7.5, 150 mM NaCl, 3.4 mM EDTA, 0.001% NP-40, 30 C). Conditions: tags: His6 N-terminal (pET28a); label: 5' 32P.
How it was run: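 Purified RbFox RRM, wild type or mutant, was incubated for 10 min in 50 µL with 1 nM of a 5′-radiolabelled RNA pool carrying 7 randomized nucleotides, whose flanks were annealed to DNA oligonucleotides, over a series of increasing protein concentrations. Unbound RNA was resolved on 8% native PAGE, cut out, reverse-transcribed, barcoded by PCR and sequenced on an Illumina HiSeq 2500. Relative association constants were derived from changes in read counts for each RNA species versus the control reaction and normalised to the cognate motif.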

Binder	binding signal
B1	0.00242 KA relative to UGCAUGU
B2	0.0197 KA relative to UGCAUGU
B3	0.0154 KA relative to UGCAUGU
B4	0.00633 KA relative to UGCAUGU
B5	0.00705 KA relative to UGCAUGU
B6	0.00905 KA relative to UGCAUGU
B7	0.0143 KA relative to UGCAUGU
B8	0.00754 KA relative to UGCAUGU
B9	0.00561 KA relative to UGCAUGU
B10	0.0016 KA relative to UGCAUGU
B11	0.0117 KA relative to UGCAUGU
B12	0.0113 KA relative to UGCAUGU
B13	0.00338 KA relative to UGCAUGU
B14	0.0137 KA relative to UGCAUGU
B15	0.0116 KA relative to UGCAUGU
B16	0.0132 KA relative to UGCAUGU

Binder	binding signal
B17	0.00384 KA relative to UGCAUGU
B18	0.00862 KA relative to UGCAUGU
B19	0.0136 KA relative to UGCAUGU
B20	0.0154 KA relative to UGCAUGU
B21	0.0107 KA relative to UGCAUGU
B22	0.0044 KA relative to UGCAUGU
B23	0.0045 KA relative to UGCAUGU
B24	0.00683 KA relative to UGCAUGU
B25	0.0114 KA relative to UGCAUGU
B26	0.000265 KA relative to UGCAUGU
B27	0.0121 KA relative to UGCAUGU
B28	0.0115 KA relative to UGCAUGU
B29	0.00295 KA relative to UGCAUGU
B30	0.0256 KA relative to UGCAUGU
B31	0.0119 KA relative to UGCAUGU
